Results from PubChem BioAssay AID1745845 (National Center for Advancing Translational Sciences (NCATS), 2022).
The whole screen tested about 360,000 compounds, of which about 2,600 (0.72%) were called active. Inconclusive means that the source gave no clear call. Such entries were picked first, then a sample of the others. Calls follow the shape of the dose curve; as a rule, active = well fitted inhibition curve with a large enough effect; inconclusive = small, poorly fitted or top-dose-only effect; inactive = no such curve, though single readings can be large or run the other way. Where the call is inconclusive, the potency comes from a doubtful curve fit.

assay: Primary qHTS for Inhibitors of ATXN expression; settings: HEK-293 ATXN2-luciferase reporter, luminescence, 24 h; activity change, negative = inhibition: at 57 µM (top of the series); also: nearly all actives have a fitted effect of over 55% in size
Method in brief: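 ATXN2-luciferase reporter cells (luciferase flanked by upstream and downstream ATXN2 gene portions) were treated 24 h at 37 °C with compounds at up to 57 uM. SteadyGlo luminescence gave expression; GF-AFC fluorescence gave viability.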
% is scaled to controls: 0 for no effect and ±100 for the full control effect; potency is read from the fitted curve at half-maximal effect; tags tell the direction and shape of the fitted curve.

Potency, inconclusive:
CCN(CC)CCNC(=O)c1ccc(NC(=O)c2ccc(S(=O)(=O)N(C)c3ccccc3OC)cc2)cc1 7.08 µM [inhibitor, single point]
COc1ccccc1CNc1nc(NCc2ccccc2OC)c2sccc2n1 28.2 µM [inhibitor, single point]
CCC/C=C/c1ccc(CN2C(C(C)C)C(=O)N(Cc3cn(CCC4OCCCO4)nn3)CCS2(=O)=O)cc1 (configuration not stated) 39.8 µM [inhibitor, single point]
COc1ccc2nc(C)cc(SCC(=O)N/N=C/c3ccc(O)cc3O)c2c1 8.91 µM [inhibitor, partial curve]
CC(=O)OCCNc1cc(SCc2ccco2)c2nonc2c1[N+](=O)[O-] 39.8 µM [inhibitor, single point]
COc1ccc(N2CCN(C(=O)c3cc4c(s3)-c3ccccc3S(=O)(=O)C4)CC2)cc1 31.6 µM [inhibitor, single point]
COc1ccc(NC(=O)c2cc(S(=O)(=O)NCCC3=CCCCC3)ccc2F)cc1 15.8 µM [inhibitor, partial curve, poor fit]
CCN(CC)c1ccc(C(=O)OCc2cc(=O)oc3cc(O)ccc23)cc1 22.4 µM [inhibitor, partial curve]
O=[N+]([O-])c1nn(-c2ccc3c(c2)OCCO3)n(O)c1=Nc1ccc(Cl)cc1 0.251 µM [inhibitor, full curve, poor fit]
Oc1c(C(Nc2nc3ccccc3s2)c2ccco2)ccc2cccnc12 (configuration not stated) 7.08 µM [inhibitor, full curve]
C=CCN(CC=C)C(=S)NC(=O)c1ccc(OC)c(Br)c1 39.8 µM [inhibitor, single point]
Cc1ccc(C)c(S(=O)(=O)NCCc2csc(-c3ccc(Cl)cc3)n2)c1 22.4 µM [inhibitor, partial curve]
Cc1ccc(C2CC(C(F)(F)F)n3nc(C(=O)NCc4c(C)nn(C)c4C)c(Cl)c3N2)cc1 (configuration not stated) 15.8 µM [inhibitor, partial curve]
CCOC(=O)c1[nH]c(C)c(C(=O)OCc2ccc(C)cc2)c1C 23.8 µM [inhibitor, partial curve, poor fit]
COc1ccccc1-c1nnc2sc(COc3ccc(Cl)cc3Cl)nn12 15.8 µM [inhibitor, partial curve, poor fit]
O=c1cc(-c2ccccc2)[nH]n1-c1ccc([N+](=O)[O-])cc1 39.8 µM [inhibitor, single point]
O=C(N/N=C/c1cc([N+](=O)[O-])ccc1N1CCNCC1)c1ccc([N+](=O)[O-])cc1 35.5 µM [inhibitor, single point]
COc1cc(Cl)c(NC2=CC(=O)C(=O)c3ccccc32)c(OC)c1 15.8 µM [inhibitor, partial curve]
Fc1ccc(COc2ccc(Br)cc2CNCC2CCCO2)cc1 (configuration not stated) 0.398 µM [inhibitor, full curve, poor fit]
O=C(c1ccc2c3c(cccc13)CC2)C1CCCN(Cc2ccccn2)C1 (configuration not stated) 22.4 µM [inhibitor, single point]
Cc1ccc(C(=O)NNC(=O)c2ccccc2O)cc1S(=O)(=O)N1CCCCC1 10 µM [inhibitor, partial curve, poor fit]
OC[C@@H]1CN(Cc2ccc(Cl)cc2)C[C@H](n2cnc3c(N4CCN(c5ccccc5)CC4)ncnc32)O1 31.6 µM [inhibitor, single point]
C(=C\c1nc(N2CCCC2)c2ccccc2n1)/c1ccccc1 23.8 µM [inhibitor, single point]
NC(=O)N1CCC(CC(=O)N2CCC([C@H]3c4ncc(Br)cc4CCc4cc(Cl)cc(Br)c43)CC2)CC1 24.3 µM [inhibitor, single point]
Cc1nc2c(OCCOc3ccc(F)cc3)cccn2c1N(C)C(=O)CCC1CCCC1 35.5 µM [inhibitor, single point]
Cc1ccc(N(CC(=O)Nc2cc(C)cc(C)c2)S(=O)(=O)c2c(C)noc2C)cc1 39.8 µM [inhibitor, single point]

Potency, active:
COc1ccc2c(c1)C(SCC(=O)NCCc1ccc(Cl)cc1)CC(C)(C)O2 (configuration not stated) 28.2 µM
C=CCn1c(C)cc(C(=O)CN2C(=O)c3ccccc3C2=O)c1C 7.08 µM
O=C(Nc1cc(C(F)(F)F)cc(C(F)(F)F)c1)c1cc(Cl)ccc1O 0.863 µM
O=C(O)CCSc1nc2ccccc2s1 10 µM

Activity change, negative = inhibition, inconclusive:
O=C(O)c1cccc(-n2c(/C=C/c3ccc([N+](=O)[O-])cc3)nc3ccccc3c2=O)c1 -41.1% [inhibitor]

Activity change, negative = inhibition, inactive:
O=C(C[n+]1cc(-c2ccc(Cl)cc2)n2c1CCCCC2)c1ccccc1 23.6%
CN(C)/C=N/C(=S)Nc1ccccc1Cl 27%
COc1ccc(Cc2cnc(N)s2)cc1 27.6%
Cc1[nH]c2ccccc2c1CN1CCN(c2ccccn2)CC1 13.8%
Cc1ccc(S(=O)(=O)N2CC(=O)Nc3ccccc32)c(C)c1NS(C)(=O)=O -20.2%
CC[C@]12c3[nH]c4cc(-c5ccco5)ccc4c3CCN1C(=O)[C@@H](CC(=O)NCc1ccc(OC)c(OC)c1)C[C@@H]2C(=O)N1CCN(C(=O)C2CC2)CC1 -4.61%
CCn1c(=O)n(-c2cccc(Cl)c2)c(=O)c2sc3ccccc3c21 2.81%
Cc1cc(C(=O)NNC(=O)C2CCCC2)c(C)o1 -6%
CCN1CCN(Cc2ccc(NC(=O)c3cc(NC(=O)c4ccc5n[nH]nc5c4)cc(OC)c3)cc2C(F)(F)F)CC1 9.2%
Cc1ccc(CNC(=O)c2ccc(N3CCC4(CC3)CC(c3ccccc3)=NO4)c([N+](=O)[O-])c2)cc1 -15.2%
CCNC(=O)COC(=O)c1cc(=O)[nH]c2ccccc12 2.31%
